Test results taken from PubChem BioAssay AID504332 (National Center for Advancing Translational Sciences (NCATS), 2011).
Screen size: about 350,000 compounds; about 31,000 (8.9%) were called active. Inconclusive results, whose numbers are uncertain, are shown with a selection of clear calls. Calls come from the whole dose curve; as a rule, active = well fitted inhibition curve with a large enough effect; inconclusive = small, poorly fitted or top-dose-only effect; inactive = no such curve, though single readings can be large or run the other way. Potencies beside an inconclusive call are fits to weak or partial responses and may not hold up.

Each molecule was assayed against Histone-lysine N-methyltransferase EHMT2 (Homo sapiens) (UniProt Q96KQ7) (assay: qHTS Assay for Inhibitors of Histone Lysine Methyltransferase G9a). Details: G9a H3K9 monomethylation, AlphaScreen, 2 h; activity, negative = inhibition: at 59 µM (top of the series) unless noted.
Sequence of UniProt Q96KQ7 (Q96KQ7 whole entry, looked up): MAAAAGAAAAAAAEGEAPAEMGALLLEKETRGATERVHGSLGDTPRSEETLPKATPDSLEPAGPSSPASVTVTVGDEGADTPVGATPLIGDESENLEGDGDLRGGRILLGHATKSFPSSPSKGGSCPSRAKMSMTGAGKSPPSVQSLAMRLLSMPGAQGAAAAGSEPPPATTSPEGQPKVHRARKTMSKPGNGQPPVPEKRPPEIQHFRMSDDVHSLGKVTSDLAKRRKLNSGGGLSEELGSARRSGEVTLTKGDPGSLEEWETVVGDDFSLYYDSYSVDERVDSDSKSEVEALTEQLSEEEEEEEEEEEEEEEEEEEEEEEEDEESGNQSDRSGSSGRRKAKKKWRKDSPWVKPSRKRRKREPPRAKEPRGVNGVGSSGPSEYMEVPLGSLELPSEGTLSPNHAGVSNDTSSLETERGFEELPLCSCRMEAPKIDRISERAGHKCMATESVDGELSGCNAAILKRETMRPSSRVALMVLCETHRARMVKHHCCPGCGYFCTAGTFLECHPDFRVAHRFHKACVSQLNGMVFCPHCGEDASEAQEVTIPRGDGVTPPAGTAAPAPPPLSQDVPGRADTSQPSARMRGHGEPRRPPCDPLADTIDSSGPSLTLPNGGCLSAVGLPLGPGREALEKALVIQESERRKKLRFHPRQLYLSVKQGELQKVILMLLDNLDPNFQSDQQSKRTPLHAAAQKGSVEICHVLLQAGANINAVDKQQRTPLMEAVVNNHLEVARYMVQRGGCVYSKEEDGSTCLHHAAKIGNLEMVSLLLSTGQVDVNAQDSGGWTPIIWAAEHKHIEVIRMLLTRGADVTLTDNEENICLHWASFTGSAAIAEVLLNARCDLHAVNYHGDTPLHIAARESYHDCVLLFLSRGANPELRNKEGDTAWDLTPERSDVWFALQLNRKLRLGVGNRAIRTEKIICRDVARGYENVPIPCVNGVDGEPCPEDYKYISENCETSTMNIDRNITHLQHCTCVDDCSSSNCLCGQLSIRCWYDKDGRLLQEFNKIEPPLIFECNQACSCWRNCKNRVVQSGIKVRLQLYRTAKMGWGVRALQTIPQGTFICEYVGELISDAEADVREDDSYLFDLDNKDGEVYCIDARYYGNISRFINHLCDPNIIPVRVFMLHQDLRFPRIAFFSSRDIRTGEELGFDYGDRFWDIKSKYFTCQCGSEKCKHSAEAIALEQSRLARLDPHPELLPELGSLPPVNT
Procedure, shortened: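 G9a (20 nM) preincubated 15 min RT with compounds, then 500 nM biotinylated H3K9 peptide and 20 uM SAM added; 2 h RT reaction. Monomethyl-H3K9 product detected by AlphaScreen with anti-H3K9me1 antibody, streptavidin donor and anti-rabbit IgG acceptor beads.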
% is set by controls: 0 for no effect and ±100 for the full control effect; potency is the fitted concentration of half-maximal effect; tags give direction and shape of the fitted curve.
Note: nearly all actives have a fitted effect of over 75% in size.

| Structure (SMILES) | Potency | activity, negative = inhibition |
| --- | --- | --- |
| O=C(CSc1ncn[nH]1)NCc1ccc2c(c1)OCO2 | inconclusive: 10 µM [inhibitor, partial curve, poor fit] | – |
| Nc1nc(-c2cccc(Br)c2)cs1 | inconclusive: 17.8 µM [inhibitor, partial curve, poor fit] | – |
| O=C(NCc1cccnc1)c1ccccc1CCc1ccccc1 | inactive | – |
| CCOC(=O)C1CCN(Cc2cccc(Oc3ccccc3)c2)CC1 | active: 7.08 µM | – |
| O=C(O)c1ccc(CSc2nnnn2C2CCCCC2)cc1 | inconclusive: 50.1 µM [inhibitor, partial curve] | – |
| O=C(CN1C(=O)S/C(=C\C=C\c2ccccc2)C1=O)Nc1cccc(O)c1 | inactive | – |
| CC(C)(C)NC(=O)CCN(/N=C/c1ccncc1)C1=NS(=O)(=O)c2ccccc21 | inconclusive: 89.1 µM [inhibitor, single point] | – |
| O=c1c2ccccc2nc2sc(Nc3cccc(C(F)(F)F)c3)nn12 | inactive | – |
| CCN(CC)S(=O)(=O)c1cccc(N=Nc2c(O)c3ccccc3oc2=O)c1 | inconclusive: 89.1 µM [inhibitor, single point] | – |
| COc1ccc(-c2noc(CCC(=O)Nc3ccccc3Cl)n2)cc1OC | inconclusive: 17.8 µM [inhibitor, partial curve, poor fit] | – |
| COc1ccc(C(=O)N2CCC(C(=O)Nc3ccc(OC)c(OC)c3)CC2)cc1 | inactive | – |
| N=C(N)SCc1cn2ccccc2n1 | inconclusive: 39.8 µM [inhibitor, single point] | – |
| Cc1ccc(-c2nc(S(=O)(=O)c3ccc(C)cc3)c(N3CCOCC3)o2)cc1 | active: 4.47 µM | – |
| N#CCCCSc1nnc(-c2ccc(Cl)cc2)n1-c1ccccc1 | inconclusive: 44.7 µM [inhibitor, partial curve, poor fit] | – |
| O=C(CSc1nc(-c2ccccc2)cc(=O)[nH]1)Nc1ccccn1 | – | inconclusive: -63% [inhibitor] |
| CSc1cccc(NS(=O)(=O)c2ccc3[nH]cc(C(=O)N4CCCCCC4)c(=O)c3c2)c1 | inconclusive: 22.4 µM [inhibitor, partial curve, poor fit] | – |
| N=C(N)n1c(N)nc2ccccc2c1=O | inactive | – |
| Cc1cc2ccc(C)c(C)c2nc1SCC(=O)c1cccs1 | inactive | – |
| Cc1cc(NC(=O)c2ccc([N+](=O)[O-])o2)ccc1NC(=O)c1ccco1 | active: 79.4 µM | – |
| COc1ccc(S(=O)(=O)Nc2cc(SCC(=O)O)c(O)c3ccccc23)cc1 | active: 2 µM | – |
| CS(=O)(=O)N1CCc2ccc(NC(=O)C3CCCO3)cc2C1 (stereo unspecified) | active: 79.4 µM | – |
| COc1ccccc1N1CCN(C(=O)c2oc3ccccc3c2N)CC1 | inconclusive: 28.2 µM [inhibitor, single point] | – |
| Cc1ccc(-c2onc(C)c2C)cc1S(=O)(=O)NC1CCC(C)CC1 (stereo unspecified) | inactive | – |
| CC(=O)NC12CC3CC(C1)CC(C(=O)N1CCN(S(=O)(=O)c4ccc(Cl)s4)CC1)(C3)C2 | inconclusive: 7.94 µM [inhibitor, partial curve, poor fit] | – |

| Structure (SMILES) | Potency | activity, negative = inhibition |
| --- | --- | --- |
| O=C(c1ccc(CS(=O)(=O)c2c(Cl)cccc2Cl)o1)N1CCN(c2ccccn2)CC1 | inconclusive: 79.4 µM [inhibitor, single point] | – |
| CC1CCN(S(=O)(=O)c2ccc3nc(N4CCN(c5ccccc5F)CC4)ccc3c2)CC1 | inconclusive: 3.55 µM [inhibitor, full curve, poor fit] | – |
| O=C1CCS/C(=N\N=C\c2ccc(Cl)cc2Cl)N1 | inactive | – |
| CC1(C)CC(=O)C(N=Nc2cc(C(F)(F)F)ccc2Cl)=C(O)C1 | inconclusive: 39.8 µM [inhibitor, full curve, poor fit] | – |
| COc1ccc2c(c1)Cc1sc(NC(=O)c3cccc(Cl)c3)nc1-2 | inconclusive: 28.2 µM [inhibitor, single point] | – |
| Cc1ccc(C(=O)CC(=O)c2ccccc2C)c(O)c1 | inactive | – |
| CCCN(CCC)CCCNC(=O)c1nn(C)c2c1CS(=O)(=O)c1ccccc1-2 | inactive | – |
| Cn1c(=O)c2c(nc(CN3CCN(C(=O)c4ccco4)CC3)n2Cc2cccc(Cl)c2)n(C)c1=O | inconclusive: 35.5 µM [inhibitor, single point] | – |
| O=C1/C(=C/c2cccnc2)Oc2cc(OS(=O)(=O)c3ccccc3)ccc21 | inconclusive: 25.1 µM [inhibitor, single point] | – |
| COc1cc(/C=C(\C#N)c2nc3c(s2)CCCC3)ccc1O | inconclusive: 3.16 µM [inhibitor, partial curve, poor fit] | – |
| CCN(CC(=O)Nc1cccc(Br)c1)Cc1nc2ccccc2c(=O)[nH]1 | inconclusive: 1.12 µM [inhibitor, full curve, poor fit] | – |
| O=C(CSc1nnc(C2CC2)n1C1CC1)c1cc(F)ccc1F | inconclusive: 89.1 µM [inhibitor, single point] | – |
| COC(=O)C1=C(C)NC(=S)NC1c1sccc1C (stereo unspecified) | inconclusive: 79.4 µM [inhibitor, single point] | – |
| CCOC(=O)c1sc2ncc([N+](=O)[O-])cc2c1N | inconclusive: 44.7 µM [inhibitor, partial curve, poor fit] | – |
| COc1ccccc1CNC(=O)c1cn(C)c2ccc(S(=O)(=O)N3CCCC3)cc2c1=O | inactive | – |
| CCOC1=NS(=O)(=O)c2ccccc21 | inactive | – |
| COc1ccc(-c2[nH]c(-c3ccc(C(=O)O)cc3)nc2-c2ccccc2)cc1 | active: 79.4 µM | – |
| Cc1ccc(NC(=O)N2CCc3ccccc32)cc1C | inactive | – |
| CCOc1ccc(-c2cnc3n2CCC3)cc1 | inconclusive: 89.1 µM [inhibitor, single point] | – |
| O=C(O)C1C2CCC(O2)C1C(=O)Nc1ccc(Cl)cc1F (stereo unspecified) | inconclusive: 79.4 µM [inhibitor, single point] | – |
| O=C(c1ccncc1)N1CCN(S(=O)(=O)c2ccc(F)cc2)CC1 | inconclusive: 44.7 µM [inhibitor, partial curve, poor fit] | – |
| Cc1ccnc(NC(=O)/C=C/c2ccccc2[N+](=O)[O-])c1 | inconclusive: 44.7 µM [inhibitor, partial curve] | – |
| O=C1NC(=S)N(C(=O)c2ccc(F)cc2)/C1=C/c1ccccc1 | active: 10 µM | – |
| FC(F)(Cl)c1nnc2ccc(Sc3ccccn3)nn12 | active: 25.1 µM | – |

| Structure (SMILES) | Potency | activity, negative = inhibition |
| --- | --- | --- |
| Cc1ccc(CNC(=O)CN2C(=O)COc3ccc(S(=O)(=O)N4CCC(C)CC4)cc32)cc1 | inconclusive: 0.794 µM [inhibitor, full curve, poor fit] | – |
| CC(C)CC1(C)N=C(c2ccccc2)C(=S)N1 (stereo unspecified) | inconclusive: 15.8 µM [inhibitor, full curve] | – |
| CCOc1cc2[nH]c(=O)n(CCCN3CCN(c4ccc(OC)cc4)CC3)c(=O)c2cc1OCC | active: 10 µM | – |
| COc1ccc(CCNC(=O)c2cc(-c3ccc(C)cc3O)n[nH]2)cc1OC | inconclusive: 89.1 µM [inhibitor, partial curve, poor fit] | – |
| COc1ccccc1CNC(=O)CSC(=S)N1CCCC1 | active: 11.2 µM | – |
| CCOc1cccc(/C(O)=C2/C(=O)C(=O)N(CCN3CCOCC3)C2c2cccnc2)c1 (stereo unspecified) | inconclusive: 35.5 µM [inhibitor, single point] | – |
| COc1ccc(CN2CCN(C(=O)CC(C)C)CC2)cc1OC | inconclusive: 4.47 µM [inhibitor, partial curve, poor fit] | – |
| O=C(c1ccco1)N(CCC(c1ccccc1)c1ccco1)Cc1ccccc1 (stereo unspecified) | inconclusive: 89.1 µM [inhibitor, single point] | – |
| Cc1cc(C)c2nc(N)sc2c1 | inconclusive: 5.62 µM [inhibitor, full curve, poor fit] | – |
| Cc1ccc(-n2c(C)c3c(C)nnc(C)c3c2C)cc1N | inconclusive: 39.8 µM [inhibitor, single point] | – |
| CC(=O)N[C@@H](CS)C(=O)O | – | inactive: -14.3% [at 12.7 µM] |
| N#Cc1cc2c(nc1SCc1ccncc1)CCC2 | active: 3.16 µM | – |
| COCCNc1ncnc2ccc(-c3cccc(NS(C)(=O)=O)c3)cc12 | – | inactive: -0.718% [at 0.501 µM] |
| CCN(Cc1ccccc1)C(=O)C1CCN(Cc2sccc2C)CC1 | active: 8.91 µM | – |
| CSc1cccc(NC(=O)C(=O)NCc2ccccc2)c1 | inconclusive: 8.91 µM [inhibitor, full curve, poor fit] | – |
| COc1ccc(C2CC(c3ccccc3)=NN2C(=O)COC(=O)c2nc3nc(C)cc(C)n3n2)cc1 (stereo unspecified) | inconclusive: 11.2 µM [inhibitor, full curve] | – |
| COc1ccc(C)cc1NCC(=O)Nc1ccc(C(C)(C)C)cc1 | active: 35.5 µM | – |
| CCc1ccc(NC(=O)/C(C#N)=C/c2cn(CC(=O)O)c3ccccc23)cc1 | inconclusive: 56.2 µM [inhibitor, partial curve, poor fit] | – |
| CN1c2ccccc2-c2nc(SCC(=O)Nc3ccccc3)ncc2S1(=O)=O | inactive | – |
| Cc1ccc(N=Cc2c(O)n(-c3ccc4c(c3)OCO4)c(=O)c3ccccc23)cc1 | – | inactive: 5.56% [at 12.7 µM] |
| COc1ccc(S(=O)(=O)N2CCN(C(=O)C3CC3)CC2)cc1Br | inconclusive: 1 µM [inhibitor, partial curve, poor fit] | – |
| CCC1(c2ccccc2)NC(=O)N(CC(=O)Nc2ccc(S(=O)(=O)N3CC(C)CC(C)C3)cc2)C1=O (stereo unspecified) | inconclusive: 39.8 µM [inhibitor, partial curve, poor fit] | – |
| O=c1cc(O)c2ccccc2n1Cc1ccccc1Cl | inconclusive: 89.1 µM [inhibitor, partial curve, poor fit] | – |
